Laboratory results published in the supplement of paper PMC11417369.
The list shows a part of the results.

system: PfAP2-HC AP2 domain (GST-tagged); assay: gcPBM binding intensity (ln(normalized median fluorescence intensity)); higher = stronger DNA binding
Method in brief: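 After 1 h on an Agilent 4 × 180k array of primer-extended double-stranded 36-bp intergenic genomic probes and negative controls, bound GST-tagged P. falciparum DNA-binding domains were detected with Alexa488 anti-GST antibody and scanned at 488 nm. The domains had been expressed in E. coli, and binding took place in 1× PBS with 1% milk, 0.2 mg/ml BSA, 0.5% salmon testes DNA and 0.03% Triton X-100. Binding intensity is the highest Masliner-normalised natural-log median intensity across replicate spots of either probe orientation.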

| Sequence | gcPBM binding intensity (ln) |
| --- | --- |
| TACAAAAAAGAAGATATTCAAACAAAAACAAAAAAA [CACACA_negctrl_site1126] | 9.55 |
| TATATATATATGCTACGTACATATATATTATATATA [XGTACX_site7894] | 9.72 |
| TATCATAATAGACACAGTACATATATGTCTTAAATT [XGTACX_site8775] | 9.65 |
| GTATTCTTCTCTCCGTGTACATATATATGTATATAT [XGTACX_site803] | 10.1 |
| ACACATACATACATATGTACATATATACATATATAC [XGTACX_site5559] | 9.92 |
| TATATATAAACAAAATGTACATATTTGAGATACCCT [XGTACX_site2195] | 9.82 |
| AAACCGTGGGAGCACACACACACACGCGCACATATA [CACACA_site6288] | 10.5 |
| GTAACCCACCAAAATGCACACATTAAAAAAAAAAAA [CACACA_site1046] | 9.66 |
| TGTTTCTAAAAAAAAGGTACACATATATATAATATA [XGTACX_site3217] | 9.49 |
| ATAGTTTATACAAATAGTACGCACAAAAAAAAATAA [XGTACX_site6727] | 9.8 |
| AAAAAATTTCAAATGACATAATGTAATTTCCCTTTT [GTGCAC_negctrl_site673] | 9.45 |
| TATATATTATATATATGTACATATTTATTTTATTTT [XGTACX_site6989] | 9.86 |
| AATACCGGAAAGCAAACACACATTTGAAAACCATAA [CACACA_site7761] | 9.99 |
| TTTATCAAAATAAATGCACACAAATTGCACATATCT [CACACA_site8281] | 9.86 |
| AACGGGGGTAGTTTTATGCACACGTTTATTAATGCT [CACACA_site3173] | 9.85 |
| GATATGAATATAGGTTGTACTATATATAAAGTATGT [XGTACX_site1877] | 9.71 |
| TATATGTTAATTTTTTTTTTTTTTTTTTTTTTTATA [CACACA_negctrl_site62] | 9.26 |
| AAAGTACAAGTATAATCACACGTGTCTATTATATAC [CACACA_site4507] | 10.2 |
| ACATGAATTTATATGTGTACTAACTATATTCTTAAA [XGTACX_site5966] | 9.6 |

| Sequence | gcPBM binding intensity (ln) |
| --- | --- |
| TATCTGTATTTATTCACACATATAAAATATAATTAA [CACACA_site5560] | 9.28 |
| ATGAATAAATAGGTCACACACAAATATTTATAAATA [CACACA_site7186] | 10.2 |
| TCTGGCATATAATATTGTACACATATATATATATAT [XGTACX_site8182] | 9.99 |
| TATATACAATATAGGTGTACATTTTTTTATCTATTT [XGTACX_site8431] | 9.7 |
| ATAATGTTTTATAATACACACATTATATATATAAAT [CACACA_site6101] | 9.72 |
| GATTACAAAAAAAATACACACAAAAAAAAAAAGGAA [CACACA_site2096] | 10.3 |
| ATATTTATGTAAAAAAGTACATACAATTATATATGT [XGTACX_site3750] | 9.67 |
| AATATCTTAGTGGATACACACATATAAATGTGTATT [CACACA_site6367] | 9.82 |
| CTTTCAATTTTTTTCTGTACCAATAAAAAATATAAA [XGTACX_site2120] | 9.14 |
| TTGAGCATAAAATTTGGAAACCTCAATCGGACAAAA [GTGCAC_negctrl_site84] | 9.53 |
| CAACTCTTATTTAATTATATGAATTAATTTATATGA [CACACA_negctrl_site200] | 9.27 |
| TGCATAAATTTATGCACACATAAAAAAAAAAAAAAA [CACACA_site2923] | 9.62 |
| CATAAATGTCTCACATGTACATATGCATTTTTAAAA [XGTACX_site3194] | 9.45 |
| TATATATAATATTGCACACAAAATTAAAAGTAAATA [CACACA_site19] | 9.89 |
| ATTATTTTGTTTATTACATGCAGGTGTATATTACAG [TGCATGCA_site723] | 9.59 |
| GAGTATATTTATATTGCACACAATTTTTTTATTTTT [CACACA_site2644] | 9.93 |
| TTAAATACTAAAAAGTGTACACATACATAAAAAATT [XGTACX_site6261] | 9.77 |
| ATTATGTTAATAATATGTACATATATCTACATATAT [XGTACX_site7978] | 9.91 |
| TTGAAATGCATGAACACACACAGCTATAAATGCATA [CACACA_site968] | 10.2 |

| Sequence | gcPBM binding intensity (ln) |
| --- | --- |
| AAAATATTATCTAATTGTACTTATATAACTATATAT [XGTACX_site5699] | 9.73 |
| ATACTAAGGAGAAAAGAAAAGTGAATTTATTCTATA [CACACA_negctrl_site1792] | 9.4 |
| AAATTTATGAACCTAGTGCAGAAATTAAAAAGATGA [GTGCAC_site9396] | 9.54 |
| TTATTAACCTAAATTAGTACATATAATATAAAAAAT [XGTACX_site8661] | 9.53 |
| AGCTATGTATTCTACACACACATACACCCATATATA [CACACA_site5827] | 10.1 |
| AATATGTCATATATGTGTACATATGCACAGATATTA [XGTACX_site951] | 9.71 |
| TGAACTTTAAACCCTGAACACACACTAATACACCCA [CACACA_site7970] | 10.6 |
| ATAAAAAGAAATCCAATACACACCTTCAAAATGGGT [CACACA_site1622] | 10.1 |
| ATTCAATATTTATACACACACACTTTTAATAATTAA [CACACA_site7725] | 10.2 |
| ATATATATAATAAATACACACATTTATATAGATAAA [CACACA_site3254] | 9.83 |
| TCATTCAGTTTTATCACACACAATCAAACATATATA [CACACA_site2742] | 9.87 |
| AAACATTTATCAATGAATCTTTTAATAAGTGTAAAG [XGTACX_negctrl_site80] | 9.46 |
| TATTTTTTTAGATATACATGCAAAAACAGAAGAAAT [TGCATGCA_site283] | 9.54 |
| AATATAAGGATATATACACACATAAATACATACATA [CACACA_site7859] | 9.99 |
| TCAACATTCATTGGAAGTACTCACTCCCATATAATA [XGTACX_site5211] | 9.46 |
| TATATATATATATTCACACATATAGTATTGTATTTA [CACACA_site5147] | 9.72 |
| TATATTTTATATTAGTGTACAAATTTCATTTTTCAT [XGTACX_site2204] | 9.62 |
| AATATATATAAAAAAGTGCATTAGGATAACCATATA [GTGCAC_site9590] | 9.91 |
